# ± gives the standard deviation of the averaged measurements. The list shows a part of the results.
# System: PfAP2-I AP2 domain 3 (GST-tagged)
# Assay: gcPBM binding intensity (ln(normalized median fluorescence intensity)); higher = stronger DNA binding
# In short: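 GST-tagged P. falciparum DNA-binding domains, expressed in E. coli (about 25 μg on average), were applied for 1 h to an Agilent 4 × 180k array of primer-extended double-stranded 36-bp intergenic genomic probes plus negative controls. The binding buffer was 1× PBS with 1% milk, 0.2 mg/ml BSA, 0.5% salmon testes DNA and 0.03% Triton X-100. Bound protein was detected with Alexa488 anti-GST antibody and scanned at 488 nm. Binding intensity is the highest Masliner-normalised natural-log median intensity across replicate spots of either probe orientation.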
row,Sequence,gcPBM binding intensity (ln)
1,TATGGATTACACAATTGTACAAGAAAAATGTAAATA [XGTACX_site4040],7.93 ± 0.59
2,ATGCATAAAAGAAATACACACATAAATATATAAATA [CACACA_site2163],7.88 ± 0.47
3,TCTATTATCCTTTGCACACAAAATAAATGAAAAAAT [CACACA_site3029],8.86 ± 0.014
4,ATATAAGTTTTTTCTCAAAAAGTATAACGAGCATGA [CACACA_negctrl_site1375],7.8 ± 0.52
5,CCCACGTATATTTTGTGTACATAAATAAATAAATAA [XGTACX_site4046],8.79 ± 0.61
6,ACATTATATAAATATATACATATATATATATATAAA [GTGCAC_negctrl_site115],7.53 ± 0.38
7,TTTGATAAATGATACACACACAATATTTATAAAATA [CACACA_site7040],7.74 ± 0.54
8,TCAGAAATATTACAAAGTACATGCAACGAAAATTTC [XGTACX_site5061],7.88 ± 0.89
9,ACACAATGTAGTGTATAAATACAATAAAAGGTTGTA [TGCATGCA_negctrl_site251],7.61 ± 0.68
10,TCTTATAATTTACCTACACACAGGAAATATATAAAT [CACACA_site294],7.84 ± 0.45
11,TGATATTTAAATTTTGCACACGCATATGAAATTAGG [CACACA_site1034],8.91 ± 0.16
12,ATGACGTAGTGGTGTACACACATGGTACCTTTATTC [CACACA_site1547],8.34 ± 0.45
13,AAAAAAATATTCAAAGCATGCCTATTTACACATATT [TGCATGCA_site806],7.6 ± 0.64
14,AAAAAAAAAAAAAAAGTGCATTAATAAATTTTAATA,11.5 ± 0.61
15,ATACGAAAATATTTTGCACACTATAATTATTCATAT [CACACA_site1765],9.67
16,TTTCCCTACCAAAAGTGTACTTATACATATTTTTAT [XGTACX_site5495],7.87 ± 0.67
17,ACATATTATTCTTCTTGTACACATAAATTTTATAAA [XGTACX_site299],8.66 ± 0.4
18,ACATCTATGTATAATACACACACTAATATATAATTG [CACACA_site5134],7.84 ± 0.54
19,TTTTTTTCATAATATACACACAAAAAAAAAAAAAAA [CACACA_site3224],8.12 ± 0.68
20,TATACTCATATATAAACACACAAAAAAAAAAAAAAA [CACACA_site5165],8.04 ± 0.69
21,ATATATATATATATGTGTACATATATATATCATATG [XGTACX_site3126],9.31 ± 0.6
22,TGTGTATATATGCTGGTGCAACTTTAAAAAATAATC,9.52 ± 0.057
23,AAATTATATACCACAGTGCAAAAGGCAGGTATACGT,10 ± 0.11
24,TATTATTTTAAGATTGTTTATGTAAAGAATTATGAA [CACACA_negctrl_site445],7.41 ± 0.3
25,TTTTTTTTTTTTTGCACACACATATATAAATATATA [CACACA_site3949],9.53 ± 0.4
